Data taken from patent US20260234245A1 (ELTHERA, published 2026).

How the values were obtained:
[1] = target: T1, human L1CAM on the surface of human cancer cell lines (human, UniProt P32004 20-1257); assay: cell-based or functional assay
[2] = target: T1, human L1CAM on the surface of human …; assay: cell-based or functional assay; remark: listed apart in the source
[3] = target: T2, soluble His-tagged human L1CAM (extracellular portion, amino acids 20 to 1120) (human, UniProt P32004 20-1120); assay: SPR essentially as in Example 4, conjugate captured, His-tagged human L1CAM as analyte
T2 construct: range 20-1120; Expressed in HEK cells with an N-terminal leader peptide for secretion (not part of the assayed protein)

B1: AFF4-WT-VC-MMAE (antibody, human IgG1, kappa)
heavy: QVQLQESGPGLVKPSQTLSLTCTVTGYSITSDYTWNWIRQFPGKGLEWMGYISYSGSYSYNPSLKSRVTISRDTSKNQFSLKLSSVTAADTAVYYCARSFSYSYGFAYWGQGTLVTVSSASTKGPSVFPLAPSSKSTSGGTAALGCLVKDYFPEPVTVSWNSGALTSGVHTFPAVLQSSGLYSLSSVVTVPSSSLGTQTYICNVNHKPSNTKVDKRV[here human IgG1 Fc without letters]
light: DIQMTQSPSSLSASVGDRVTITCKASQDVSSAVAWYQQKPGKAPKLLIYSASYRYTGVPSRFSGSGSGTDFTFTISSLQPEDFATYYCQQHYSTPWTFGGGTKVEIKRTVAAPSVFIFPPSDEQLKSGTASVVCLLNNFYPREAKVQWKVDNALQSGNSQESVTEQDSKDSTYSLSSTLTLSKADYEKHKVYACEVTHQGLSSPVTKSFNRGEC
modifications: MC-VC-PABC-MMAE on thiols of partially reduced cysteines; drug to antibody ratio 3.8; chain and positions not stated
notes: also called AFF4-WT conjugated to VC-MMAE (MC-VC-PABC-MMAE, vedotin); AFF-WT-VC-MMAE
With B1 the “cytotoxicity IC50 on JIMT-1 cells (6 days, ATP quantification)” value (“cytotoxicity IC50 on JIMT-1 cells” for short) [1] was 0.041 nM, the “cytotoxicity IC50 on MeWo cells (6 days, ATP quantification)” value (from here on “cytotoxicity IC50 on MeWo cells”) [1] was 0.245 nM and the “cytotoxicity IC50 on OVCAR-3 cells (6 days, ATP quantification)” value (“cytotoxicity IC50 on OVCAR-3 cells” below) [1] was 0.025 nM. For the same binder, the “cytotoxic potency (IC50, mean) on Caov-3 ovarian cancer cells (L1CAM 83′653 molecules/cell)” value [2] was 0.275 nM, the “cytotoxic potency (IC50, mean) on EFO-27 ovarian cancer cells (L1CAM 51′850 molecules/cell)” value [2] was 0.382 nM and the “cytotoxic potency (IC50, mean) on FU-OV-1 ovarian cancer cells (L1CAM 168′071 molecules/cell)” value [2] was 0.141 nM. For the same binder, the “cytotoxic potency (IC50, mean) on HEC-1A endometrial cancer cells (L1CAM 12 molecules/cell)” value [2] was 36.9 nM, the “cytotoxic potency (IC50, mean) on HEC-1B endometrial cancer cells (L1CAM 59′450 molecules/cell)” value [2] was 0.068 nM and the “cytotoxic potency (IC50, mean) on HEC-108 endometrial cancer cells (L1CAM 68′342 molecules/cell)” value [2] was 0.456 nM. For the same binder, the “cytotoxic potency (IC50, mean) on HEC-251 endometrial cancer cells (L1CAM 78′216 molecules/cell)” value [2] was 0.055 nM, the “cytotoxic potency (IC50, mean) on HHUA endometrial cancer cells (L1CAM 51′267 molecules/cell)” value [2] was 0.028 nM and the “cytotoxic potency (IC50, mean) on IMR32 neuroblastoma cells (L1CAM 12′467 molecules/cell)” value [2] was 0.428 nM. For the same binder, the “cytotoxic potency (IC50, mean) on JHOS-2 ovarian cancer cells (L1CAM 117′667 molecules/cell)” value [2] was 0.175 nM, the “cytotoxic potency (IC50, mean) on JHOS-4 ovarian cancer cells (L1CAM 1′500 molecules/cell)” value [2] was 10.1 nM and the “cytotoxic potency (IC50, mean) on JHUEM-1 endometrial cancer cells (L1CAM 347 molecules/cell)” value [2] was 21.6 nM. The “cytotoxic potency (IC50, mean) on JIMT-1 breast cancer cells (L1CAM 94′673 molecules/cell)” value [2] was 0.034 nM, the “cytotoxic potency (IC50, mean) on MDA-MB-468 breast cancer cells (L1CAM 469 molecules/cell)” value [2] was 91.6 nM and the “cytotoxic potency (IC50, mean) on MFE-280 endometrial cancer cells (L1CAM 26′941 molecules/cell)” value [2] was 38.9 nM. The “cytotoxic potency (IC50, mean) on MeWo melanoma cells (L1CAM 38′150 molecules/cell)” value [2] was 0.962 nM, the “cytotoxic potency (IC50, mean) on OVCAR-3 ovarian cancer cells (L1CAM 85′571 molecules/cell)” value [2] was 0.033 nM and the “cytotoxic potency (IC50, mean) on OVKATE ovarian cancer cells (L1CAM 26′337 molecules/cell)” value [2] was 0.382 nM. For the same binder, the “cytotoxic potency (IC50, mean) on OVSAHO ovarian cancer cells (L1CAM 66′750 molecules/cell)” value [2] was 0.069 nM, the “cytotoxic potency (IC50, mean) on SK-BR-3 breast cancer cells (L1CAM 9′029 molecules/cell)” value [2] was 1.69 nM and the “cytotoxic potency (IC50, mean) on SKOV-6 ovarian cancer cells (L1CAM 22′465 molecules/cell)” value [2] was 15.1 nM. For the same binder, the “cytotoxic potency (IC50, mean) on SNGM endometrial cancer cells (L1CAM 15′179 molecules/cell)” value [2] was 1.91 nM and the Kd [3] was 0.14 nM.

B2: AFF4-WT-Gluc-MMAE (antibody, human IgG1, kappa)
heavy: B1 heavy
light: B1 light
modifications: MC-betaglucuronide-MMAE on thiols of partially reduced cysteines; drug to antibody ratio 3.9; chain and positions not stated
notes: also called AFF4-WT conjugated to Gluc-MMAE (MC-betaglucuronide-MMAE)
B2 was tested, and the “cytotoxicity IC50 on JIMT-1 cells” value [1] was 0.013 nM, the “cytotoxicity IC50 on MeWo cells” value [1] was 0.021 nM and the “cytotoxicity IC50 on OVCAR-3 cells” value [1] was 0.01 nM. It also gave a Kd [3] of 0.14 nM.

B3: AFF4-WT-VA-SG3199 (antibody, human IgG1, kappa)
heavy: B1 heavy
light: B1 light
modifications: MP-PEG8-VA-PABC-SG3199 on thiols of partially reduced cysteines; drug to antibody ratio 1.8; chain and positions not stated
notes: also called AFF4-WT conjugated to VA-SG3199 (MP-PEG8-VA-PABC-SG3199, tesirine)
With B3 the “cytotoxicity IC50 on JIMT-1 cells” value [1] was 0.008 nM, the “cytotoxicity IC50 on MeWo cells” value [1] was 0.006 nM and the “cytotoxicity IC50 on OVCAR-3 cells” value [1] was 0.002 nM. The Kd [3] was 0.14 nM.

B4: AFF4-WT-sulfo-SPDB-DM4 (antibody, human IgG1, kappa)
heavy: B1 heavy
light: B1 light
modifications: sulfo-SPDB-DM4 on lysines (lysine conjugate); drug to antibody ratio 3.7; chain and positions not stated
notes: also called AFF4-WT conjugated to sulfo-SPDB-DM4
B4 was tested, and the “cytotoxicity IC50 on JIMT-1 cells” value [1] was 0.568 nM, the “cytotoxicity IC50 on MeWo cells” value [1] was 0.88 nM and the “cytotoxicity IC50 on OVCAR-3 cells” value [1] was 0.899 nM. It also gave a Kd [3] of 0.16 nM.
